The target of assay [1] is T1, HA-tagged NKRF WT (UniProt O15226).
T1 sequence: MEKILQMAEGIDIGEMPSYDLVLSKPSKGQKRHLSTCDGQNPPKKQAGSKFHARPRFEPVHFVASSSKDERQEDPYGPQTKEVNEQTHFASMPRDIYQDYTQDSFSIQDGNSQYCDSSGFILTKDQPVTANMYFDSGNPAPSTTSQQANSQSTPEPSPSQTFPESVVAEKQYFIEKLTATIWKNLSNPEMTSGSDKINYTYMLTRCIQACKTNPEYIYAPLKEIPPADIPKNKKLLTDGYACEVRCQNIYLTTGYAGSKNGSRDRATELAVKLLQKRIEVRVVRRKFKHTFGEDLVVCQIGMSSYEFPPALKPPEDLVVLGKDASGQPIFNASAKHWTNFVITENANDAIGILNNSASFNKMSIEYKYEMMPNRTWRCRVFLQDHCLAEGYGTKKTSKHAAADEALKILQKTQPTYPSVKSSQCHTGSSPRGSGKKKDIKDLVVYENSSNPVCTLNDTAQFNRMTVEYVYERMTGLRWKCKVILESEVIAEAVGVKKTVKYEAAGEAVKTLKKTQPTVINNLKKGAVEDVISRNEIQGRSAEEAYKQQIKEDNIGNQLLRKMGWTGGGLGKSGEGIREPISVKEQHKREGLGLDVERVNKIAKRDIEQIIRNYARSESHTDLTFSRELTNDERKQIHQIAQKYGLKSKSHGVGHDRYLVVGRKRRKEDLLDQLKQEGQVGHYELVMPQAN
The assay is described as follows: co-IP; HA-tagged NKRF WT or truncated mutants (M1-M5) overexpressed in 293T or HCT116 cells (control or GCLM knock-down, oxaliplatin 40 μM, 24 h); anti-HA immunoprecipitation.

Amino acid sequences for entries named in this document (tags omitted). Residues count along the entry.
UniProt Q04206: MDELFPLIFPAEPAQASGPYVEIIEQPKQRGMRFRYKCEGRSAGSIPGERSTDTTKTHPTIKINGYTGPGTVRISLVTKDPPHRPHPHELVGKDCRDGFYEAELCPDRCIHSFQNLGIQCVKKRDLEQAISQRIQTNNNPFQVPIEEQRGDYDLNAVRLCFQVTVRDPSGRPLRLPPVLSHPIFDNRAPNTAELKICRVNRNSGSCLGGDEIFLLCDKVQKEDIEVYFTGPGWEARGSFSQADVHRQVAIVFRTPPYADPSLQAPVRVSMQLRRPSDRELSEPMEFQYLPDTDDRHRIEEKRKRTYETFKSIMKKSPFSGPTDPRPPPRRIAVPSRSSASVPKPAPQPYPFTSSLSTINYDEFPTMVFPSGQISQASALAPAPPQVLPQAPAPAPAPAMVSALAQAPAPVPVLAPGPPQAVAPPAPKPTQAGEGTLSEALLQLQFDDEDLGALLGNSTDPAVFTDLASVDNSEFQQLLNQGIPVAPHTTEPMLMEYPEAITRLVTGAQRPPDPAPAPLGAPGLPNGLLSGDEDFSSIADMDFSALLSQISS
UniProt P19838, residues 1-433: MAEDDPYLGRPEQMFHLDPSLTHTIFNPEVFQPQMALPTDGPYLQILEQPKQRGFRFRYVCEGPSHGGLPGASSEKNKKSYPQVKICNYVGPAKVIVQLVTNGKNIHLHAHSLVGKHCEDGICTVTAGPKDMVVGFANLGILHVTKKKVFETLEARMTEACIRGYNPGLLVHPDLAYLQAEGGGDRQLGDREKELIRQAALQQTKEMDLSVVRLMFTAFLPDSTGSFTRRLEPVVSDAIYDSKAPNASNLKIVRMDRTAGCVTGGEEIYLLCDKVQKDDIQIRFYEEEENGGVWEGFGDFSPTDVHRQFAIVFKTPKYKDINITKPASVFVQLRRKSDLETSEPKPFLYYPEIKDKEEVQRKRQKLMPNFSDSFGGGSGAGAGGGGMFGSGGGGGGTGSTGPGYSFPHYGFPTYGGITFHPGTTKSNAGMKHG
UniProt P52294: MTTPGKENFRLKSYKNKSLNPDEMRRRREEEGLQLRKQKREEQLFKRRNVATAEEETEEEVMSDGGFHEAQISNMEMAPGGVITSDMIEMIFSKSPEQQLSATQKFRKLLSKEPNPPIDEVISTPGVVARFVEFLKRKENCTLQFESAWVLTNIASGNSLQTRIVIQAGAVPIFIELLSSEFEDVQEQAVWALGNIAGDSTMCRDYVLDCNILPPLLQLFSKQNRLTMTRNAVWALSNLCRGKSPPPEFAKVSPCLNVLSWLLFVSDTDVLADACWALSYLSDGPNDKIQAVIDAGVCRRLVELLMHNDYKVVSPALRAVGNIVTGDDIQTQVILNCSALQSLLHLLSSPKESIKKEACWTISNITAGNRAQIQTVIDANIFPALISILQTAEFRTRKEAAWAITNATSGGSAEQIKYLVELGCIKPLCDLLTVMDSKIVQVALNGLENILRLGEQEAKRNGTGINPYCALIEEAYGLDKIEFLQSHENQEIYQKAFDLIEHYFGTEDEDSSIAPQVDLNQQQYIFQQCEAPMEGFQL

The target in assay [2] is p65 (NF-κB/p65) (human (endogenous in HCT116 and 293T)) (UniProt Q04206). The experiment in a line: co-IP; p65 with p50 in control or GCLM-knockdown HCT116 or 293T cells overexpressing HA-tagged NKRF, oxaliplatin (40 μM, 24 h); which of the two was precipitated is not stated.
Assay [3] concerns the target T2, GCLM (glutamate-cysteine ligase modifier subunit), endogenous (human (endogenous in HCT116 and 293T)) (UniProt P48507).
T2 sequence: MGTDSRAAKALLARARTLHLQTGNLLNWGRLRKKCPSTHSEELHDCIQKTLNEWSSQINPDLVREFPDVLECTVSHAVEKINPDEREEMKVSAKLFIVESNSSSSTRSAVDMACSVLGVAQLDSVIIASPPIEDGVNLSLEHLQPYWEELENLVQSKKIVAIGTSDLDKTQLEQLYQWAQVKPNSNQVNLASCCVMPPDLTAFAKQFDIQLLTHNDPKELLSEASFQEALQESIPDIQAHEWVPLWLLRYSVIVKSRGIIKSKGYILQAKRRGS
The assay is described as follows: co-IP; endogenous proteins; anti-GCLM antibody or IgG with protein A/G beads overnight at 4 °C; cells with or without oxaliplatin, cisplatin or kinase inhibitors.

In assay [4] the target is T2, GCLM (glutamate-cysteine ligase modifier subunit), endogenous (human (endogenous in HCT116 and 293T)). The assay is described as follows: condition: only with calf intestinal phosphatase (CIP) treatment; co-IP; GCLM immunoprecipitated from HCT116 cells treated with calf intestinal phosphatase (CIP), which resulted in GCLM dephosphorylation.
The target of assay [5] is T3, Flag-tagged GCLM T17E mutant (UniProt P48507).
T3 sequence: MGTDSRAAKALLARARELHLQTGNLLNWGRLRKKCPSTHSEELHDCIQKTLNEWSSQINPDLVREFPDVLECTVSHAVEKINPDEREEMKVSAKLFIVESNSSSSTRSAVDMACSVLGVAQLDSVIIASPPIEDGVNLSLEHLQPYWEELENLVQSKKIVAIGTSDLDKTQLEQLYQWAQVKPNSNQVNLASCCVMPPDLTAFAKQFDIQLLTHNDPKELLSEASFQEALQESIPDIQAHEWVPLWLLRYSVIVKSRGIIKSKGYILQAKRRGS
The experiment in a line: co-IP; anti-Flag immunoprecipitation from total lysate or cytoplasmic and nuclear fractions of 293T or HCT116 cells overexpressing Flag-tagged GCLM WT, GCLM-NLS or mutants; with or without oxaliplatin or importazole (40 μM, 24 h).

For assay [6], the target named is T4, Flag-tagged GCLM WT (glutamate-cysteine ligase modifier subunit) (UniProt P48507).
T4 sequence: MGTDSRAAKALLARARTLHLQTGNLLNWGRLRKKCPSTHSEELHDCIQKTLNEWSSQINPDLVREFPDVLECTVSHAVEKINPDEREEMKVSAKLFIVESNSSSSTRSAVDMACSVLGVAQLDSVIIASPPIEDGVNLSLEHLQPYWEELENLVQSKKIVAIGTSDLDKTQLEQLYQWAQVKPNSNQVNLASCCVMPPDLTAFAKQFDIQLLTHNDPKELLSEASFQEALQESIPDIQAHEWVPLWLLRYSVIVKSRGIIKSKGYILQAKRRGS
The assay is described as above.

Assay [7] has as its target T4, Flag-tagged GCLM WT (glutamate-cysteine ligase modifier subunit). The experiment in a line: proximity ligation; Duolink in situ PLA with anti-Flag-GCLM and anti-NKRF antibodies in 293T cells overexpressing Flag-tagged GCLM WT or nuclear GCLM (+NLS).
The target of assay [8] is T2, GCLM (glutamate-cysteine ligase modifier subunit), endogenous (human (endogenous in HCT116 and 293T)). The assay is described as follows: co-IP; endogenous proteins; anti-GCLM antibody or IgG with protein A/G beads overnight at 4 °C; cells with or without oxaliplatin, cisplatin or kinase inhibitors. This is another data set of the same source.
Assay [9] deals with T3, Flag-tagged GCLM T17E mutant. The experiment in a line: co-IP; anti-Flag immunoprecipitation from total lysate or cytoplasmic and nuclear fractions of 293T or HCT116 cells overexpressing Flag-tagged GCLM WT, GCLM-NLS or mutants; with or without oxaliplatin or importazole (40 μM, 24 h). The source holds these as a separate data set.
Assay [10] deals with T4, Flag-tagged GCLM WT (glutamate-cysteine ligase modifier subunit). Described as above. This is another data set of the same source.
The target in assay [11] is T5, GCLM C193/194 A mutant (UniProt P48507).
T5 sequence: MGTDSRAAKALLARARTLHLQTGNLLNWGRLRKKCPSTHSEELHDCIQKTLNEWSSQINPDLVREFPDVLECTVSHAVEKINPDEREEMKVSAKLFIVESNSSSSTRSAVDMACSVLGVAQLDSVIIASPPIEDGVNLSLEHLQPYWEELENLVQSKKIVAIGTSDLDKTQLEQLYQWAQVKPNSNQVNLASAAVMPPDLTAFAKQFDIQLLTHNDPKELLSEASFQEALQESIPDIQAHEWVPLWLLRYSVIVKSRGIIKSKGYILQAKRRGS
Described as above.

The target of assay [12] is T6, purified GST-GCLM (UniProt P48507).
T6 sequence: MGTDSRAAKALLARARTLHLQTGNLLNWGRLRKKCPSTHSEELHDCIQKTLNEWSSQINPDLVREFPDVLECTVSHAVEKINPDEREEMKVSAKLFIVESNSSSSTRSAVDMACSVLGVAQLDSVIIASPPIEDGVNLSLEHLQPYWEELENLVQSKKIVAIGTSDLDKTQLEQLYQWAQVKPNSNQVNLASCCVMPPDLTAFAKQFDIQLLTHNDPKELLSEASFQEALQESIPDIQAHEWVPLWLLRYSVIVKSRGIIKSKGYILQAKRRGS
The experiment in a line: pull-down; 20 µg GST-GCLM or GST control on Glutathione Sepharose 4B beads (1 h, 4 °C), 10 µg His-NKRF added for 2 h at 4 °C, washed with PBST five times, immunoblot; both purified. (In general: In western blotting, separated proteins are transferred to a membrane and probed.)

The target in assay [13] is T1, HA-tagged NKRF WT. The assay is described as follows: co-IP; HA-tagged NKRF WT or truncated mutants (M1-M5) overexpressed in 293T or HCT116 cells (control or GCLM knock-down, oxaliplatin 40 μM, 24 h); anti-HA immunoprecipitation. This is another data set of the same source.

Results on 6 molecules are retold here after paper PMC11696352.

Where two headings read alike, the source gives them in different places. Results are given in words; binding and its absence hold for the method and conditions named. For some assays here: Binding seen in cells or lysates may run through a third protein. Some binding calls cover weakened binding; strength is not graded here. For some assays here: Tags and fused reporters may be left off the sequences shown.

In the case of “p65 (NF-κB/p65) (from UniProt Q04206 1-551)”, the binding result in assay [1] was “binds”.
As to “p50 (NF-κB p50) (from UniProt P19838 1-433)”, the binding result in [2] is on record as “binds”.
Consider “importin α5 (also known as KPNA1), endogenous (from UniProt P52294 1-538)”, for which the binding entry in assay [3] was “binds”; in [4] it was “no binding”; in assay [5], “binds”; in assay [6], “binds”.

B1: NF-κB-repressing factor (NKRF), endogenous (protein, UniProt O15226 1-690)
chain: MEKILQMAEGIDIGEMPSYDLVLSKPSKGQKRHLSTCDGQNPPKKQAGSKFHARPRFEPVHFVASSSKDERQEDPYGPQTKEVNEQTHFASMPRDIYQDYTQDSFSIQDGNSQYCDSSGFILTKDQPVTANMYFDSGNPAPSTTSQQANSQSTPEPSPSQTFPESVVAEKQYFIEKLTATIWKNLSNPEMTSGSDKINYTYMLTRCIQACKTNPEYIYAPLKEIPPADIPKNKKLLTDGYACEVRCQNIYLTTGYAGSKNGSRDRATELAVKLLQKRIEVRVVRRKFKHTFGEDLVVCQIGMSSYEFPPALKPPEDLVVLGKDASGQPIFNASAKHWTNFVITENANDAIGILNNSASFNKMSIEYKYEMMPNRTWRCRVFLQDHCLAEGYGTKKTSKHAAADEALKILQKTQPTYPSVKSSQCHTGSSPRGSGKKKDIKDLVVYENSSNPVCTLNDTAQFNRMTVEYVYERMTGLRWKCKVILESEVIAEAVGVKKTVKYEAAGEAVKTLKKTQPTVINNLKKGAVEDVISRNEIQGRSAEEAYKQQIKEDNIGNQLLRKMGWTGGGLGKSGEGIREPISVKEQHKREGLGLDVERVNKIAKRDIEQIIRNYARSESHTDLTFSRELTNDERKQIHQIAQKYGLKSKSHGVGHDRYLVVGRKRRKEDLLDQLKQEGQVGHYELVMPQAN
Regarding B1, the binding entry is on record as “binds” in assay [7]; “binds” in assay [8]; “no binding” in assay [4]; “binds” in [9]; “binds” in [10]; “binds” in assay [11].

B2: purified His-NKRF (protein, UniProt O15226 1-690)
chain: MEKILQMAEGIDIGEMPSYDLVLSKPSKGQKRHLSTCDGQNPPKKQAGSKFHARPRFEPVHFVASSSKDERQEDPYGPQTKEVNEQTHFASMPRDIYQDYTQDSFSIQDGNSQYCDSSGFILTKDQPVTANMYFDSGNPAPSTTSQQANSQSTPEPSPSQTFPESVVAEKQYFIEKLTATIWKNLSNPEMTSGSDKINYTYMLTRCIQACKTNPEYIYAPLKEIPPADIPKNKKLLTDGYACEVRCQNIYLTTGYAGSKNGSRDRATELAVKLLQKRIEVRVVRRKFKHTFGEDLVVCQIGMSSYEFPPALKPPEDLVVLGKDASGQPIFNASAKHWTNFVITENANDAIGILNNSASFNKMSIEYKYEMMPNRTWRCRVFLQDHCLAEGYGTKKTSKHAAADEALKILQKTQPTYPSVKSSQCHTGSSPRGSGKKKDIKDLVVYENSSNPVCTLNDTAQFNRMTVEYVYERMTGLRWKCKVILESEVIAEAVGVKKTVKYEAAGEAVKTLKKTQPTVINNLKKGAVEDVISRNEIQGRSAEEAYKQQIKEDNIGNQLLRKMGWTGGGLGKSGEGIREPISVKEQHKREGLGLDVERVNKIAKRDIEQIIRNYARSESHTDLTFSRELTNDERKQIHQIAQKYGLKSKSHGVGHDRYLVVGRKRRKEDLLDQLKQEGQVGHYELVMPQAN
In the case of B2, the binding entry in assay [12] is “binds”.

B3: GCLM (glutamate-cysteine ligase modifier subunit), endogenous (protein, UniProt P48507 1-274)
chain: MGTDSRAAKALLARARTLHLQTGNLLNWGRLRKKCPSTHSEELHDCIQKTLNEWSSQINPDLVREFPDVLECTVSHAVEKINPDEREEMKVSAKLFIVESNSSSSTRSAVDMACSVLGVAQLDSVIIASPPIEDGVNLSLEHLQPYWEELENLVQSKKIVAIGTSDLDKTQLEQLYQWAQVKPNSNQVNLASCCVMPPDLTAFAKQFDIQLLTHNDPKELLSEASFQEALQESIPDIQAHEWVPLWLLRYSVIVKSRGIIKSKGYILQAKRRGS
For B3, the binding result in [13] was “binds”.
